Measured values published in the supplement of paper PMC11283458.
This is one part of the list. Many values rest on one well or one pass, so single values are uncertain.

Test system: Mast2 alternative exon (endogenous)
Assay: delta PSI of alternative exon relative to 0.4% DMSO control (RT-PCR) (percentage points); higher = more exon inclusion
Conditions: concentration: not stated (optimised per compound); Neuro-2a
Procedure: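 Reads PSI of the Mef2d reporter microexon and of endogenous mouse neural alternative exons. dPSI is relative to the 0.4% DMSO control, single replicate.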
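Note: exons read include endogenous Mef2d, Mast2, Ergic3 and Trappc9 microexons plus the longer neural-regulated Zdhhc20, Mgrn1 and Asph cassette exons, alongside the reporter microexon.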

SMILES	delta PSI of alternative exon
Cc1n[nH]c2ccc(-c3cncc(OC[C@@H](N)Cc4c[nH]c5ccccc45)c3)cc12	35.2
CC(=O)OC(C)(C)C=CC(=O)[C@](C)(O)[C@H]1[C@H](O)C[C@@]2(C)[C@@H]3CC=C4[C@@H](CC[C@H](O)C4(C)C)[C@]3(CO)C(=O)C[C@]12C	20.8
O=C1NC(=O)C(=CC=Cc2ccccc2)C(=O)N1	-0.612
COc1ccc(/C=C/C=C2C(=O)NC(=O)NC2=O)cc1	-1.09
